Data as given in PubChem BioAssay AID1645882 (National Center for Advancing Translational Sciences (NCATS), 2021).
Among all 16,000 compounds or so, about 120 (0.75%) were called active. Inconclusive results (about 4%) are left out. The call rests on the fitted dose curve; in most records, active means well fitted inhibition curve with a large enough effect; inconclusive means small, poorly fitted or top-dose-only effect; inactive means no such curve, though single readings can be large or run the other way. This is one part of the list. Where a SMILES comes first, the peptide text is derived from it. Bridges are numbered along the chain shown (N, C = ends). [ ]: non-standard residue; d: D form. The star is where a group is joined. ξ: configuration not given here. d(aThr) = C[C@@H](O)[C@@H](N)C(=O)O; ξThr(3R) = C[C@@H](O)C(N)C(=O)O; X8 = CC[C@@H](C)CCCCC(=O)*; dDab = NCC[C@@H](N)C(=O)O
Further: nearly all actives have a fitted effect of over 75% in size.
Potency means the concentration at half of the fitted maximal effect.
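Wherever activity change, negative = inhibition is given: plate controls were DMSO for no effect and ATA control for full effect.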

Each compound was assayed against Rap guanine nucleotide exchange factor 3 (Homo sapiens) (UniProt O95398) (assay: Validation qHTS for antagonist of cAMP-regulated guanine nucleotide exchange factor 3 (EPAC1)). Settings: EPAC1 Rap1B-BODIPY-GDP exchange, fluorescence; series mostly up to 150 µM; activity change, negative = inhibition: at the top concentration.
UniProt O95398, sequence (O95398 whole entry, looked up): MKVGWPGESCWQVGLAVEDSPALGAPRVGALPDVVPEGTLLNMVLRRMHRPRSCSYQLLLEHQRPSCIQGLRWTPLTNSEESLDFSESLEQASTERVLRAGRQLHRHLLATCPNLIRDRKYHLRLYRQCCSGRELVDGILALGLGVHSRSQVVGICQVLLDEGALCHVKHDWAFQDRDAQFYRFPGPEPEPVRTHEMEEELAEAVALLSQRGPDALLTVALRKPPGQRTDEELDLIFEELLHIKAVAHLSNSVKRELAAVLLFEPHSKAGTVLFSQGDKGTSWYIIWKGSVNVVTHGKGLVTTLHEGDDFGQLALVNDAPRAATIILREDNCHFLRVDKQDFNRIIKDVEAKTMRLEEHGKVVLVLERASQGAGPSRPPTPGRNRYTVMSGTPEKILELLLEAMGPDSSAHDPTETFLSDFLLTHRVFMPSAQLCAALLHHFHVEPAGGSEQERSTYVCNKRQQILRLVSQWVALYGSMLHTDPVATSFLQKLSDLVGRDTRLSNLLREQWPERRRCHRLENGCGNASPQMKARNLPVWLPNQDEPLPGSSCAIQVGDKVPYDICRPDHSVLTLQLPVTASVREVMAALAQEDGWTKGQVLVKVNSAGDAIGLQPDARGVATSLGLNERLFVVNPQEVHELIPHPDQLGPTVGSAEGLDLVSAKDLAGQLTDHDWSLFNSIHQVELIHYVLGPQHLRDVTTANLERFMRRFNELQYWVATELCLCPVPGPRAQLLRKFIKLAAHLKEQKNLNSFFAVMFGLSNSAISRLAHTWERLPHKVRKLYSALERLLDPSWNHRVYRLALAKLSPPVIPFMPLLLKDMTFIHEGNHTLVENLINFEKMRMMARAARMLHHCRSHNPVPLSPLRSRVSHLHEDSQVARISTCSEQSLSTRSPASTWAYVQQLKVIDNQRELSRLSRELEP
Summary of the method: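 Nucleotide exchange followed as fluorescence loss when BODIPY-GDP leaves Rap1B (480 nm excitation, 540 nm emission), read at 5 min intervals over 30 min. Reaction: 100 nM EPAC1, 250 nM RAP1B-BODIPY-GDP, 50 uM GDP; ATA and DMSO define normalization.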
In the case of `O=C1CCN(CCc2ccccc2)CCN1[C@H](CO)Cc1ccccc1`, the “activity change, negative = inhibition” value is reported as inactive: -2.84%. For `O=C1O[C@H]2[C@H](O)[C@@H]1OC(O)[C@H]2O` (some centres undefined), the “activity change, negative = inhibition” value was inactive: 35.4%. For `CC(C)C(=O)c1c(C(C)C)nn2ccccc12`, the activity change, negative = inhibition was “inactive”. For `COP(=O)(OC)OC(c1ccc(Cl)cc1)P(=O)(OC)OC` (centres undefined), the “activity change, negative = inhibition” value was inactive: 8.87%. With `COc1ccc(CN2CCC(n3cc(C(=O)N4CCCCC4)nn3)CC2)c(OC)c1` the “activity change, negative = inhibition” value was inactive: -4.06%. For `CCCC(O)C(CC)CO` (centres undefined), the “activity change, negative = inhibition” value was inactive: 8.68%. With `CC(CN(C)C)CN1c2ccccc2CCc2ccccc21` (centres undefined) the activity change, negative = inhibition was “inactive”. For `NC(=O)c1cc[n+](CC2=C(C(=O)O)N3C(=O)C(NC(=O)C(c4ccccc4)S(=O)(=O)[O-])C3SC2)cc1` (centres undefined), the “activity change, negative = inhibition” value was inactive: -8.16%. For `Cc1noc(C)c1-c1nccc(Nc2ccc(F)cc2)n1`, the “activity change, negative = inhibition” value was inactive: 21.4%. In the case of `COc1ccc(-n2c(=O)cnc3cnc(N4CCOCC4)nc32)cc1`, the “activity change, negative = inhibition” value is reported as inactive: 6.05%. With `O=C(NCCN1CCOCC1)c1cnn(-c2ncc3c(n2)-c2ccccc2CC3)c1C1CC1` the “activity change, negative = inhibition” value was inactive: 21.4%. In the case of `COC(=O)[C@H]1[C@H]2C[C@H]3c4[nH]c5ccccc5c4CCN3C[C@H]2CC[C@@H]1O`, the activity change, negative = inhibition is reported as “inactive”. For `Cc1ccccc1C(=O)O[C@H]1[C@H](Cc2ccccc2)NS(=O)(=O)[C@H]2CC3C=C[C@]12O3`, the “activity change, negative = inhibition” value was inactive: -19.2%. `CN(C)c1nc2cc3c(cc2cc1CN(CC1CCCO1)C(=O)/C=C/c1cccs1)OCO3` (centres undefined) was tested, and the “activity change, negative = inhibition” value was inactive: 17.2%. With `Cc1cc2c3c(cccc3n1)C(=O)c1ccccc1-2` the “activity change, negative = inhibition” value was inactive: 13%. In the case of `COc1cc(=O)n2c(c1C(=O)N(C)Cc1nonc1C)CCN(Cc1c(F)cccc1F)CC2`, the “activity change, negative = inhibition” value is reported as inactive: 12.8%. For `CC(C)NCC(O)COc1cccc2[nH]ccc12` (centres undefined), the activity change, negative = inhibition was “inactive”. In the case of `OC(CCN1CCCC1)(c1ccccc1)C1CCCCC1` (centres undefined), the activity change, negative = inhibition is reported as “inactive”. `O=C(c1ccncc1)N1CCC2(CC1)CCN(c1ncccn1)CC2` was tested, and the “activity change, negative = inhibition” value was inactive: 13.6%. `Cn1c(=O)c2c(ncn2CCOC(=O)C(C)(C)Oc2ccc(Cl)cc2)n(C)c1=O` was tested, and the “activity change, negative = inhibition” value was inactive: 7.66%. In the case of `CC1COC2=C1C(=O)C(=O)c1c2ccc2c1CCCC2(C)C` (centres undefined), the “activity change, negative = inhibition” value is reported as inactive: -18.5%. With `CC(=O)N1CCC[C@@]2(CCN(Cc3cc(C(F)(F)F)cc(C(F)(F)F)c3)C2)C1` the “activity change, negative = inhibition” value was inactive: -7.76%. In the case of `CC(=O)/C(=C\c1ccccc1)CC(=O)O`, the “activity change, negative = inhibition” value is reported as inactive: 8.5%. With `CC[C@@H](C(=O)[C@@H](C)[C@@H](O)[C@H](C)[C@@H]1O[C@@H]([C@@H](CC)C(=O)O)CC[C@@H]1C)[C@H]1O[C@]2(C=C[C@@H](O)[C@]3(CC[C@@](C)([C@H]4CC[C@](O)(CC)[C@H](C)O4)O3)O2)[C@H](C)C[C@@H]1C` the “activity change, negative = inhibition” value was inactive: -138%. For `Cn1nnc2c(C(N)=O)ncn2c1=O`, the “activity change, negative = inhibition” value was inactive: 19.7%. With `Cc1cccc(CN2C[C@H](Sc3ccccn3)C[C@H]2C(=O)Nc2ccc3sc(C)nc3c2)c1` the “activity change, negative = inhibition” value was inactive: -2.16%. With `CCOC(=O)C(C)Oc1cccc2c(=O)n(CC(=O)Nc3ccc4c(c3)OCCO4)ccc12` (centres undefined) the “activity change, negative = inhibition” value was inactive: 5.48% [at 75.8 µM]. For `O=P(O)(O)C(O)c1ccc2ccccc2c1` (centres undefined), the “activity change, negative = inhibition” value was inactive: 13.9%. `CC(C)(C)CC(C)(C)c1ccc(OCCOCC[N+](C)(C)Cc2ccccc2)cc1` was tested, and the “activity change, negative = inhibition” value was inactive: 0.655%. In the case of `CC(C)C[C@@H](CSc1ccccc1)N1CCN(C)CCC1=O`, the “activity change, negative = inhibition” value is reported as inactive: -11.2%. For `Cn1c(SCc2ccccc2)nnc1C1CCCN(Cc2cccc3ncccc23)C1` (centres undefined), the “activity change, negative = inhibition” value was inactive: 13.1%. For `CC(C)CCCCCCc1ccc(O)cc1`, the “activity change, negative = inhibition” value was inactive: -28.9%. `CC1(C)S[C@@H]2[C@H](NC(=O)COc3ccccc3)C(=O)N2C1C(=O)OCc1ccccc1` (some centres undefined) was tested, and the “activity change, negative = inhibition” value was inactive: -10.6%. For `O=c1c(-c2cc(F)cc(F)c2)nc2cnc(N3CCOCC3)nc2n1C1CC1`, the “activity change, negative = inhibition” value was inactive: 21.5%. In the case of `Nc1ccccc1C(=O)C[C@H](N)C(=O)O`, the “activity change, negative = inhibition” value is reported as inactive: 6.77%. For `CCCCOc1ccc(C(=O)CCN2CCCCC2)cc1`, the activity change, negative = inhibition was “inactive”. With `NC(=O)C[C@H](NC(=O)Cc1ccc(O)cc1O)C(=O)O` the activity change, negative = inhibition was “inactive”. In the case of `O=C(O)COc1ccc(C(=O)c2cccs2)c(Cl)c1Cl`, the activity change, negative = inhibition is reported as “inactive”. `COc1cccc(O)c1O` was tested, and the “activity change, negative = inhibition” value was inactive: 24.5%. For `COc1ccc(CNC(=O)[C@@H]2CC=C[C@@H]3CCN(Cc4ccc(OC)c(OC)c4)C(=O)[C@@H]32)cc1`, the “activity change, negative = inhibition” value was inactive: -19.3%. `c1cncc(CNc2ccnc(-c3ccc4c(c3)OCO4)n2)c1` was tested, and the “activity change, negative = inhibition” value was inactive: 3.38%. For `O=c1c(-c2ccc(Cl)cc2)nc2cnc(N3CCOCC3)nc2n1-c1ccccc1`, the “activity change, negative = inhibition” value was inactive: 5.69%. In the case of `COc1ccc(CCn2nnnc2C2(c3ccc(C)cc3)CC2)cc1`, the “activity change, negative = inhibition” value is reported as inactive: 13.6% [at 75.8 µM]. `O=CCCCC=O` was tested, and the “activity change, negative = inhibition” value was inactive: 15.9%. For `CC(=O)N1CCC[C@H]1C(=O)NCC1Cc2cc(-c3cccc(OC(F)(F)F)c3)ccc2O1` (some centres undefined), the “activity change, negative = inhibition” value was inactive: -8.05%. In the case of `Nc1nc(N)c2nc(-c3ccccc3)c(N)nc2n1`, the activity change, negative = inhibition is reported as “inactive”. With `CC[C@@H](C)CCCCC(=O)N[C@H](CCN)C(=O)N[C@@H](C(=O)N[C@H](CCN)C(=O)N[C@@H]1CCNC(=O)C([C@@H](C)O)NC(=O)[C@@H](CCN)NC(=O)[C@@H](CCN)NC(=O)[C@@H](CC(C)C)NC(=O)[C@@H](Cc2ccccc2)NC(=O)[C@@H](CCN)NC1=O)[C@@H](C)O` (stereo partly drawn) (X8-[dDab][d(aThr)][dDab][dDab][dDab][dF][dL][dDab][dDab][ξThr(3R)]; lactam 4-C) the “activity change, negative = inhibition” value was inactive: 11.2%. For `c1ccc(Nc2nc(-c3ccc4c(c3)OCO4)nc3ccccc23)cc1`, the “activity change, negative = inhibition” value was inactive: -12.1%. In the case of `CC(C)=CCCC1(C)C=Cc2c(O)c3c(c(CC=C(C)C)c2O1)OC12C(=CCCC1C(C)(C)O[C@@]2(C/C=C(\C)C(=O)O)C(=O)O)C3=O` (some centres undefined), the Potency is reported as active: 89.1 µM.
